Assay results reported in PubChem BioAssay AID488969 (Vanderbilt High Throughput Screening Facility, 2010).
Over roughly 110,000 compounds, “z-score” has its median near -0.1; the highest 2% begin near 2. Some of the results follow. Active and inactive are the calls of the source.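 Rule for the calls: active = z-score in the third read window above 3 or below -3; inactive = the rest.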

molecular target: Metabotropic glutamate receptor 8 (Rattus norvegicus) (UniProt P70579); experiment: mGluR8 Gi/Go-coupled signaling modulation – cell-based, rat, thallium flux, HTS, primary screen (AID 488969); details: HEK293 rat mGluR8, GIRK (G protein-gated inwardly rectifying potassium channel) thallium flux, FluoZin2; at 10 µM; stronger effect = higher value; submaximal glutamate (EC20) added with thallium
Sequence of UniProt P70579 (P70579 whole entry, looked up): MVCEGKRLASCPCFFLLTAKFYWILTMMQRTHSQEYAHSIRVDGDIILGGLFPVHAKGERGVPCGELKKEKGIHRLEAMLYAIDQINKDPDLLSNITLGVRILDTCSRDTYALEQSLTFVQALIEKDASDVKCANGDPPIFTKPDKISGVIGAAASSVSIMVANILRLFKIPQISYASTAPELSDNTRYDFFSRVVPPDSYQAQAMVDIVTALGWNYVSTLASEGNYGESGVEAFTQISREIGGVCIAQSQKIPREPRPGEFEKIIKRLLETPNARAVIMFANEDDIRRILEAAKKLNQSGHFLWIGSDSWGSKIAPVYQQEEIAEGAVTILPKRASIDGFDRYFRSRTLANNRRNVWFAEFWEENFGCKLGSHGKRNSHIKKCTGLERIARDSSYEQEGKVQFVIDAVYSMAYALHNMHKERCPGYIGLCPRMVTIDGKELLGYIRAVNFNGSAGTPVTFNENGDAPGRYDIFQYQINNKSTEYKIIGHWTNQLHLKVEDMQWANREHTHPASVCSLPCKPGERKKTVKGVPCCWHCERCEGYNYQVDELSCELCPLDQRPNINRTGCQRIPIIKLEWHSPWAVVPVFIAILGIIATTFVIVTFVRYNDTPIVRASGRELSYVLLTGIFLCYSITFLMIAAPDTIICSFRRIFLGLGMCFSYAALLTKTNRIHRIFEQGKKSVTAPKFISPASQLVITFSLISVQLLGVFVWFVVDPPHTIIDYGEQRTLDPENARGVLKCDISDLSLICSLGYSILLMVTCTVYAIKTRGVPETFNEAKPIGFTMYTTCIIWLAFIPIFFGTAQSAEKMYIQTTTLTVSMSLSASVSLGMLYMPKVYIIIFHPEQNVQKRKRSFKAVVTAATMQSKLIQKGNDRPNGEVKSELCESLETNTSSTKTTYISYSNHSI

In order of rising z-score:
1. CCOC(=O)C1CCN(C(=O)COc2cc(C)c(Br)cc2C)CC1  -1.3
2. CCc1nc(OCCN(C)C)c2oc3ccccc3c2n1  -1.28
3. CCOC(=O)c1cc(-c2cccs2)nc2onc(C)c12  -1.14
4. O=C(O)c1cc(NCc2ccc(F)cc2)ccc1N1CCOCC1  -0.946
5. c1ccc(-c2csc3nnc(SCc4ccc5c(c4)OCO5)n23)cc1  -0.935
6. C=CCN1C(=O)/C(=C\c2ccc(C)cc2)N=C1SCC(=O)NCCC  -0.81
7. Cc1c2ccccc2nc2c(F)c(NCCO)c(F)c(F)c12  -0.746
8. CCN(CC)S(=O)(=O)c1ccc2oc(C(=O)NCc3ccc(C)cc3)c(C)c2c1  -0.591
9. NC(=O)c1ncc(C(F)(F)F)cc1Oc1ccc(C(F)(F)F)cc1  -0.58
10. O=C(NCCCN1CCCC1=O)c1cccc(C(F)(F)F)c1  -0.564
11. CCn1c(O)c(N=NC(=O)CNC(=O)/C=C/c2ccco2)c2ccccc21  -0.547
12. COc1cc(Br)cc2cc(C(=O)N3CCCCC3C)c(=O)oc12 (stereo not drawn)  -0.52
13. Nc1c(C(=O)c2ccc(Cl)cc2)sc2c1c(=O)[nH]c(=O)n2-c1ccccc1  -0.486
14. O=S(=O)(Nc1ccc(N2CCCCC2)cc1)c1ccc(F)c(F)c1  -0.478
15. CCn1cc(C(=O)NCc2ccc3c(c2)OCO3)c2cc(OC)c(OC)cc2c1=O  -0.471
16. CCn1c(COc2ccc(C)cc2)nnc1SCC(=O)C(C)(C)C  -0.467
17. CCCCn1cnc2sc(-c3ccccc3)cc2c1=O  -0.421
18. COc1cccc(-c2cc(C(=O)Nc3cccc(O)c3)no2)c1  -0.399
19. COc1ccc(CN(C(=O)c2nsc(Cl)c2Cl)C(C(=O)NC2CCCCC2)c2ccc(OC)cc2)cc1 (stereo not drawn)  -0.377
20. O=C(NC1CCCCCC1)c1ccc(CN2CCOCC2)cc1  -0.356
21. O=C(CC(SCCO)c1ccc(F)cc1)c1ccco1 (stereo not drawn)  -0.352
22. CCCSC(=S)NC1CCS(=O)(=O)C1 (stereo not drawn)  -0.344
23. CCOC(=O)c1[nH]c(C)c(C(=O)N2CCN(C(=O)c3ccco3)CC2)c1C  -0.333
24. Cc1ccc(-n2nnnc2SCC(=O)N2CC(=O)Nc3ccccc32)cc1  -0.327
25. COC(=O)c1cc(NC(=O)Nc2ccccc2)ccc1Cl  -0.321
26. COc1cc(C)ccc1OCCOc1ccccc1Cl  -0.321
27. COc1cccc(NS(=O)(=O)c2ccc3c(c2)C2C=CCC2C(c2ccc(C(=O)O)cc2)N3)c1 (stereo not drawn)  -0.315
28. CCn1c(CNc2ccc(C(=O)O)cc2)nc2ccccc21  -0.308
29. CC(OC(=O)c1cc(=O)[nH]c2ccccc12)c1ccccc1 (stereo not drawn)  -0.299
30. Cc1cc(C)cc(OCC(O)CN2C(=O)NC(C)(C)C2=O)c1 (stereo not drawn)  -0.29
31. CCOCCCNC(=S)NCCNc1nc2ccc(C)cc2cc1C#N  -0.287
32. Cc1cccc(OCCNC(=O)c2cc(-n3cnnc3)ccc2Cl)c1  -0.286
33. COc1ccc(N(C(=O)CCl)C(C)(C(=O)Nc2c(C)cccc2C)c2ccccn2)cc1 (stereo not drawn)  -0.277
34. O=C(NC1CC1)c1cc2c(s1)-c1ccccc1OC2  -0.272
35. O=S(=O)(NC1CCCCC1Sc1ncccn1)c1ccccc1 (stereo not drawn)  -0.261
36. Fc1cccc(CO/N=C/c2c(-c3ccccc3)nc3ccc(Cl)cn23)c1  -0.244
37. COc1ccc(OC)c(C(C)NC=O)c1 (stereo not drawn)  -0.24
38. CCOc1ccccc1NC(=O)C(OC(=O)c1ccc(O)cc1)c1ccccc1 (stereo not drawn)  -0.238
39. CC(C)(C)c1ccc(C(=O)Nc2nnc(Cc3c[nH]c4ccccc34)s2)cc1  -0.233
40. O=C(CN1CCOCC1)Nc1ncc(Cc2cccc3ccccc23)s1  -0.232
41. CC(=O)N(CCc1ccccc1C)Cc1cc2cc3c(cc2[nH]c1=O)OCO3  -0.227
42. Nn1c(SCC(=O)N2CCN(S(=O)(=O)c3ccc(Cl)cc3)CC2)nnc1-c1cccs1  -0.22
43. O=C(Nc1ccccc1)N(CCCN1CCOCC1)Cc1cccs1  -0.217
44. Cn1c(N)c(C(=O)Nc2ccc3ccccc3c2)sc1=S  -0.2
45. CC(=O)Nc1ccc(S(=O)(=O)N(C)CC(=O)OCC(=O)NC(C)C23CC4CC(CC(C4)C2)C3)cc1 (stereo not drawn)  -0.181
46. CC(C)(C)c1ccc(/C=C/C(=O)Nc2ncccn2)cc1  -0.179
47. CCOc1ccc(N(CC(=O)Nc2nccs2)S(=O)(=O)c2c(C)noc2C)cc1  -0.177
48. O=C(NCc1ccco1)C1(c2ccccc2)CCCC1  -0.175
49. Cc1ccc(NC2c3ncccc3C(=O)N2c2ccccc2C)cc1C (stereo not drawn)  -0.167
50. CCOc1ccc(S(=O)(=O)N2CCCCCC2)c2ccccc12  -0.161
51. O=C(NCC1CCCO1)c1onc(CSc2cccc3ccccc23)c1C(=O)O (stereo not drawn)  -0.156
52. O=C(C1CCCN(c2ncccn2)C1)N1CCc2ccccc21 (stereo not drawn)  -0.151
53. CC(=O)N=c1sccn1CC(=O)c1ccc([N+](=O)[O-])cc1  -0.139
54. CCN(CC)S(=O)(=O)c1cccc(C(=O)N[C@H](C(=O)Nc2nc3ccc(F)cc3s2)C(C)C)c1  -0.139
55. Cc1ccc(S(=O)(=O)NCCCN2CCOCC2)cc1C  -0.132
56. Nc1ccc(-n2cnc3cc([N+](=O)[O-])ccc32)cc1  -0.118
57. COc1cc(NC(=O)COc2ccc(F)cc2)nc(OC)n1  -0.114
58. CCCC(C)NC(=O)COc1ccc(Sc2ccc(OCC(=O)NC(C)CCC)cc2)cc1 (stereo not drawn)  -0.102
59. O=C(CN1C(=O)NC2(CCCCCC2)C1=O)N1CCN(S(=O)(=O)c2ccc(Cl)cc2)CC1  -0.0991
60. c1ccc(OCCCn2nnc(-c3cccnc3)n2)cc1  -0.0922
61. NC(=S)N/N=C/c1ccc2ccccc2c1  -0.0916
62. Cc1cc(C)c(C#N)c(SC2CCCCC2=O)n1 (stereo not drawn)  -0.0872
63. O/N=C/c1cc(Br)cc(Br)c1OCc1ccccc1  -0.0835
64. CC(C(=O)NCC1CCCO1)N(C(=O)c1snc(C(N)=O)c1N)c1ccccc1 (stereo not drawn)  -0.0824
65. Cc1cc(C)cc(NC(=S)NCc2cccn2C)c1  -0.08
66. COc1cc(OC)cc(-c2nc(-c3ccccc3)no2)c1  -0.0774
67. Cc1ccc(-c2noc(CN(C(=O)CCN3C(=O)c4ccccc4C3=O)C(C)C)n2)cc1  -0.0669
68. Cc1cc(N(CC(=O)NC2CC2)S(C)(=O)=O)ccc1Br  -0.045
69. Cc1ccc(C(=O)Nc2sc(C)c(C)c2C(=O)c2ccccc2)cc1  -0.0387
70. CSc1nc2ccccc2n1C(=O)Oc1ccccc1  -0.0317
71. COc1cc2c(cc1OC)C(C)N(C(=O)C1COc3ccccc3O1)CC2 (stereo not drawn)  -0.0167
72. COCCNC(=O)c1c(CSc2ccc(F)cc2)noc1C(=O)NCc1ccccc1  -0.0143
73. CCC1CCCCN1CCNC(=O)c1[nH]c(C)c(C(C)=O)c1C (stereo not drawn)  0.00481
74. O=C(COc1ccccc1)NCC(c1cccs1)N1CCOCC1 (stereo not drawn)  0.0098
75. CCn1ncc(Cl)c1C(=O)NC(C)c1ccccc1 (stereo not drawn)  0.00989
76. COc1ccc(-c2cnnn2-c2ccc(NC(=O)/C=C/c3ccc(OC)c(OC)c3)cc2)cc1  0.0694
77. CCC(CC)C(=O)NCCc1ccc(S(N)(=O)=O)cc1  0.0753
78. COC(=O)CNC(=O)c1ccccc1F  0.0789
79. COc1cccc(-c2cn3nc(C)c(C)nc3n2)c1  0.0814
80. Cc1cc(C)cc(NS(=O)(=O)c2ccc3[nH]cc(C(=O)N4CCc5ccccc54)c(=O)c3c2)c1  0.0917
81. COc1cc(NS(C)(=O)=O)c(OC)cc1NC(=O)c1ccccc1  0.0936
82. COc1cc(-c2cc(OC)c3c(C)oc(C)c3c(=O)c2)ccc1O  0.102
83. COC(=O)c1ccc(Cl)cc1NC(=O)/C=C/c1ccc(C)o1  0.113
84. O=C(CC1SC(N2CCCCC2)=NC1=O)Nc1cccc(C(=O)O)c1 (stereo not drawn)  0.134
85. Cn1c(=O)c2cc(S(=O)(=O)NC(Cc3ccccc3)C(=O)NCc3ccco3)ccc2n(C)c1=O (stereo not drawn)  0.174
86. O=C(NCc1ccco1)C1CCN(S(=O)(=O)N2CCC3(CC2)OCCO3)CC1  0.205
87. CCc1cccc(OCCCCN(CC)CC)c1  0.22
88. CCCOc1ccc(-c2c(=O)n(OCc3ccc([N+](=O)[O-])cc3)c3ccccc3[n+]2[O-])cc1  0.221
89. O=S(=O)(c1ccc(Cl)nc1)N1CCCc2ccccc21  0.245
90. CC1=NN(C(=O)c2ccc(C)o2)C(O)(c2ccccc2)C1 (stereo not drawn)  0.255
91. CCCC(=O)c1ccc(-c2ccccc2)cc1  0.29
92. O=C(CCC1CCCCC1)NCc1ccncc1  0.303
93. O=C(N/N=C/c1cc2c3c(c1O)CCCN3CCC2)c1ccccc1O  0.304
94. CCOC(=O)c1sc2nc(NC(=O)COc3ccccc3)sc2c1C  0.358
95. CC(=O)N1CCc2cc(S(=O)(=O)CCC(=O)N3CCc4ccccc4C3)ccc21  0.389
96. O=C(CSc1nc2ccccc2[nH]1)N1CCCCC1  0.394
97. COc1cccc(CNc2nc3ccccc3n2CCN2CCCCC2)c1  0.395
98. Cc1ccc(OCCn2c(CCNC(=O)C(C)C)nc3ccccc32)cc1  0.402
99. C=CCNC(=O)C(=O)N/N=C/c1ccco1  0.424
100. Cc1sc2cc(-c3cccc([N+](=O)[O-])c3)c(-c3cccc([N+](=O)[O-])c3)c[n+]2c1C  0.449
101. COc1cc(CN2CCN(c3ccccc3F)CC2)cc(OC)c1O  0.519
102. O=C(CSc1ncnc2c1cnn2-c1ccc(F)cc1)NCc1ccc2c(c1)OCO2  0.54
103. O=C(c1ccco1)N1CCN(c2ncnc3c2nnn3Cc2ccccc2Cl)CC1  0.652
104. Cc1nnc(SCC(=O)Nc2ccc3c(c2)OCCO3)s1  0.669
105. COc1ccc(C2c3sc(=O)[nH]c3SC3C4CCC(C4)C23)cc1OC (stereo not drawn)  0.72
106. Cc1cc(C(=O)O)c2ccccc2n1  0.787
107. CCN(Cc1ccccc1)C(=O)CCc1nc(-c2ccc(C)cc2)no1  1.2
108. O=C(Nc1nc(-c2ccccc2)cs1)C1COc2ccccc2O1 (stereo not drawn)  1.23
109. COc1ccc(C(OC(=O)c2c(C)noc2C)C(=O)NC2CCCC2)cc1 (stereo not drawn)  1.27
110. CC(C)(C)NC(=O)C(=O)NNC(=O)c1ccccc1  1.57
111. CC(C)(C)OC(=O)N1CC2Cc3[nH]c(=O)ccc3C(C2)C1 (stereo not drawn)  1.92
112. CCCCn1c(-c2csc(CC)c2)n[nH]c1=S  2.15

`O=C1OCCC1Sc1nc2cc(Cl)ccc2n1Cc1ccccc1` (stereo not drawn) was tested, and the z-score was active: 6.69.
